Source: the CheMixHub viscosity set
“And” between values parts separate entries of the source, which are not always exact repeats. Equal values may be shown once. ± gives the uncertainty stated by the source. Further values from the same series stand in other lists.

Assay: xn = mol fraction of the nth substance listed

[Ca+2].[Cl-].[Cl-] + O
viscosity (293.15 K, 100 kPa, x1 = 0.0018): 1.032 ± 0.034 mPa·s
viscosity (293.15 K, 100 kPa, x1 = 0.0059): 1.1 ± 0.036 mPa·s
viscosity (293.15 K, 100 kPa, x1 = 0.012): 1.2 ± 0.039 mPa·s
viscosity (293.15 K, 100 kPa, x1 = 0.017): 1.314 ± 0.043 mPa·s
viscosity (293.15 K, 100 kPa, x1 = 0.0246): 1.492 ± 0.048 mPa·s
viscosity (293.15 K, 100 kPa, x1 = 0.0348): 1.8 ± 0.058 mPa·s
viscosity (293.15 K, 101 kPa, x1 = 0.07): 3.29 ± 0.16 mPa·s
viscosity (293.15 K, 101 kPa, x1 = 0.08): 5.22 ± 0.25 mPa·s
viscosity (293.15 K, 101 kPa, x1 = 0.087): 6.06 ± 0.29 mPa·s
viscosity (293.15 K, 101 kPa, x1 = 0.1): 9.39 ± 0.45 mPa·s
viscosity (293.15 K, 101 kPa, x1 = 0.103): 10.61 ± 0.51 mPa·s
viscosity (293.15 K, 101 kPa, x1 = 0.11): 12.11 ± 0.58 mPa·s and 15.08 ± 0.72 mPa·s
viscosity (293.15 K, 101 kPa, x1 = 0.12): 16.71 ± 0.8 mPa·s
viscosity (293.15 K, 101.3 kPa, x1 = 0.0009): 1.018 ± 0.022 mPa·s
viscosity (293.15 K, 101.3 kPa, x1 = 0.0018): 1.034 ± 0.022 mPa·s
viscosity (293.15 K, 101.3 kPa, x1 = 0.00893): 1.156 ± 0.025 mPa·s
viscosity (293.15 K, 101.3 kPa, x1 = 0.0177): 1.328 ± 0.028 mPa·s
viscosity (293.15 K, 101.3 kPa, x1 = 0.03478): 1.789 ± 0.038 mPa·s
viscosity (293.15 K, 101.3 kPa, x1 = 0.05127): 2.488 ± 0.053 mPa·s
viscosity (293.15 K, 101.3 kPa, x1 = 0.06722): 3.603 ± 0.077 mPa·s
viscosity (293.15 K, 101.3 kPa, x1 = 0.09755): 8.476 ± 0.18 mPa·s
viscosity (298.15 K, 100 kPa, x1 = 0.0018): 0.9179 ± 0.03 mPa·s
viscosity (298.15 K, 100 kPa, x1 = 0.0059): 0.9816 ± 0.032 mPa·s
viscosity (298.15 K, 100 kPa, x1 = 0.012): 1.073 ± 0.035 mPa·s
viscosity (298.15 K, 100 kPa, x1 = 0.017): 1.175 ± 0.038 mPa·s
viscosity (298.15 K, 100 kPa, x1 = 0.0246): 1.339 ± 0.043 mPa·s
viscosity (298.15 K, 100 kPa, x1 = 0.0348): 1.618 ± 0.053 mPa·s
viscosity (298.15 K, 101 kPa, x1 = 0.051): 2.238 ± 0.027 mPa·s
viscosity (298.15 K, 101.3 kPa, x1 = 0.0009): 0.9052 ± 0.019 mPa·s
viscosity (298.15 K, 101.3 kPa, x1 = 0.0018): 0.9192 ± 0.02 mPa·s
viscosity (298.15 K, 101.3 kPa, x1 = 0.00893): 1.032 ± 0.022 mPa·s
viscosity (298.15 K, 101.3 kPa, x1 = 0.0177): 1.19 ± 0.025 mPa·s
viscosity (298.15 K, 101.3 kPa, x1 = 0.06722): 3.225 ± 0.068 mPa·s
viscosity (298.15 K, 101.3 kPa, x1 = 0.09755): 7.414 ± 0.16 mPa·s
viscosity (303.15 K, 101 kPa, x1 = 0.07): 2.56 ± 0.12 mPa·s
viscosity (303.15 K, 101 kPa, x1 = 0.08): 3.99 ± 0.19 mPa·s
viscosity (303.15 K, 101 kPa, x1 = 0.087): 4.66 ± 0.22 mPa·s
viscosity (303.15 K, 101 kPa, x1 = 0.1): 6.96 ± 0.33 mPa·s
viscosity (303.15 K, 101 kPa, x1 = 0.103): 7.95 ± 0.38 mPa·s
viscosity (303.15 K, 101 kPa, x1 = 0.11): 8.84 ± 0.43 mPa·s and 10.88 ± 0.52 mPa·s
viscosity (303.15 K, 101 kPa, x1 = 0.12): 11.67 ± 0.56 mPa·s
viscosity (303.15 K, 101.3 kPa, x1 = 0.0009): 0.8107 ± 0.017 mPa·s
viscosity (303.15 K, 101.3 kPa, x1 = 0.0018): 0.8242 ± 0.017 mPa·s
viscosity (303.15 K, 101.3 kPa, x1 = 0.00893): 0.9285 ± 0.02 mPa·s
viscosity (303.15 K, 101.3 kPa, x1 = 0.0177): 1.074 ± 0.023 mPa·s
viscosity (303.15 K, 101.3 kPa, x1 = 0.03478): 1.457 ± 0.031 mPa·s
viscosity (303.15 K, 101.3 kPa, x1 = 0.05127): 2.025 ± 0.043 mPa·s
viscosity (303.15 K, 101.3 kPa, x1 = 0.06722): 2.908 ± 0.062 mPa·s
viscosity (303.15 K, 101.3 kPa, x1 = 0.09755): 6.541 ± 0.14 mPa·s
viscosity (308.15 K, 101 kPa, x1 = 0.051): 1.835 ± 0.022 mPa·s
viscosity (308.15 K, 101.3 kPa, x1 = 0.0009): 0.7318 ± 0.015 mPa·s
viscosity (308.15 K, 101.3 kPa, x1 = 0.0018): 0.7442 ± 0.016 mPa·s
viscosity (308.15 K, 101.3 kPa, x1 = 0.00893): 0.8406 ± 0.018 mPa·s
viscosity (308.15 K, 101.3 kPa, x1 = 0.0177): 0.9753 ± 0.021 mPa·s
viscosity (308.15 K, 101.3 kPa, x1 = 0.03478): 1.326 ± 0.028 mPa·s
viscosity (308.15 K, 101.3 kPa, x1 = 0.05127): 1.844 ± 0.039 mPa·s
viscosity (308.15 K, 101.3 kPa, x1 = 0.06722): 2.636 ± 0.056 mPa·s
viscosity (308.15 K, 101.3 kPa, x1 = 0.09755): 5.814 ± 0.12 mPa·s
viscosity (308.45 K, 100 kPa, x1 = 0.0348): 1.322 ± 0.043 mPa·s
viscosity (309.75 K, 100 kPa, x1 = 0.0246): 1.066 ± 0.035 mPa·s
viscosity (310.25 K, 100 kPa, x1 = 0.0018): 0.713 ± 0.023 mPa·s
viscosity (312.45 K, 100 kPa, x1 = 0.0059): 0.733 ± 0.024 mPa·s
viscosity (313.15 K, 101 kPa, x1 = 0.07): 2.05 ± 0.1 mPa·s
viscosity (313.15 K, 101 kPa, x1 = 0.08): 3.09 ± 0.15 mPa·s
viscosity (313.15 K, 101 kPa, x1 = 0.087): 3.62 ± 0.17 mPa·s
viscosity (313.15 K, 101 kPa, x1 = 0.1): 5.3 ± 0.25 mPa·s
viscosity (313.15 K, 101 kPa, x1 = 0.103): 5.91 ± 0.28 mPa·s
viscosity (313.15 K, 101 kPa, x1 = 0.11): 6.65 ± 0.32 mPa·s and 8.08 ± 0.39 mPa·s
viscosity (313.15 K, 101 kPa, x1 = 0.12): 8.79 ± 0.42 mPa·s
viscosity (313.45 K, 100 kPa, x1 = 0.012): 0.7889 ± 0.026 mPa·s
viscosity (315.38 K, 100 kPa, x1 = 0.017): 0.842 ± 0.027 mPa·s
viscosity (318.15 K, 101.3 kPa, x1 = 0.0009): 0.6075 ± 0.013 mPa·s
viscosity (318.15 K, 101.3 kPa, x1 = 0.0018): 0.6181 ± 0.013 mPa·s
viscosity (318.15 K, 101.3 kPa, x1 = 0.00893): 0.7004 ± 0.015 mPa·s
viscosity (318.15 K, 101.3 kPa, x1 = 0.0177): 0.8172 ± 0.017 mPa·s
viscosity (318.15 K, 101.3 kPa, x1 = 0.03478): 1.119 ± 0.024 mPa·s
viscosity (318.15 K, 101.3 kPa, x1 = 0.05127): 1.554 ± 0.033 mPa·s
viscosity (318.15 K, 101.3 kPa, x1 = 0.06722): 2.207 ± 0.047 mPa·s
viscosity (318.15 K, 101.3 kPa, x1 = 0.09755): 4.699 ± 0.1 mPa·s
viscosity (323.15 K, 101 kPa, x1 = 0.07): 1.72 ± 0.08 mPa·s
viscosity (323.15 K, 101 kPa, x1 = 0.08): 2.56 ± 0.12 mPa·s
viscosity (323.15 K, 101 kPa, x1 = 0.087): 2.95 ± 0.14 mPa·s
viscosity (323.15 K, 101 kPa, x1 = 0.1): 4.22 ± 0.2 mPa·s
viscosity (323.15 K, 101 kPa, x1 = 0.103): 4.68 ± 0.22 mPa·s
viscosity (323.15 K, 101 kPa, x1 = 0.11): 5.26 ± 0.25 mPa·s and 6.29 ± 0.3 mPa·s
viscosity (323.15 K, 101 kPa, x1 = 0.12): 6.72 ± 0.32 mPa·s
